# Experimental data taken from the supplement of paper PMC8728848.
# Some of the results follow.
# Columns and labels:
# Experiment in all cases: glycan array binding signal (z-score within array); higher = stronger binding
# Settings in all cases: glycan notation: IUPAC condensed, linker removed
# [1] = molecular target: Fuc(a1-2)[Gal(a1-3)]Gal(b1-4)GlcNAc(b1-2)Man
# How it was run: (§1)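 Glycan array data came from 3228 arrays in the Consortium for Functional Glycomics database, and only arrays with an available protein sequence were kept. Glycan names were put into IUPAC-condensed notation, and columns mapping to the same glycan were averaged. The binding signal is a within-array Z-score, averaged across arrays of one protein sequence run at different concentrations or buffers and across linkers. A negative Z-score can be read as non-binding.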
# [2] = molecular target: Fuc(a1-2)[Gal(a1-3)]Gal(b1-4)GlcNAc(b1-2)Man(a1-3)[Fuc(a1-2)[Gal(a1-3)]Gal(b1-4)GlcNAc(b1-2)Man(a1-6)]Man(b1-4)GlcNAc(b1-4)GlcNAc
# How it was run: as §1
# [3] = molecular target: Fuc(a1-2)[Gal(a1-3)]Gal(b1-4)GlcNAc(b1-2)Man(a1-3)[Fuc(a1-2)[Gal(a1-3)]Gal(b1-4)GlcNAc(b1-2)Man(a1-6)]Man(b1-4)GlcNAc(b1-4)[Fuc(a1-6)]GlcNAc
# How it was run: as §1
# [4] = molecular target: Fuc(a1-2)[Gal(a1-3)]Gal(b1-4)GlcNAc(b1-3)GalNAc
# How it was run: as §1
# [5] = molecular target: Fuc(a1-2)[Gal(a1-3)]Gal(b1-4)GlcNAc(b1-6)GalNAc
# How it was run: as §1
# [6] = molecular target: Fuc(a1-2)[Gal(a1-3)]Gal(b1-4)[Fuc(a1-3)]Glc
# How it was run: as §1
# [7] = molecular target: Fuc(a1-2)[Gal(a1-3)]Gal(b1-4)[Fuc(a1-3)]GlcNAc
# How it was run: as §1
# [8] = molecular target: Fuc(a1-2)[Gal(a1-3)]Gal(b1-4)[Fuc(a1-3)]GlcNAc(b1-3)GalNAc
# How it was run: as §1
# [9] = molecular target: Fuc(a1-2)[Gal(a1-4)]Gal(b1-4)GlcNAc
# How it was run: as §1
# [10] = molecular target: Fuc(a1-2)[GalNAc(a1-3)]Gal
# How it was run: as §1
# [11] = molecular target: Fuc(a1-2)[GalNAc(a1-3)]Gal(b1-3)GalNAc(a1-3)[Fuc(a1-2)]Gal(b1-4)GlcNAc
# How it was run: as §1
# [12] = molecular target: Fuc(a1-2)[GalNAc(a1-3)]Gal(b1-3)GalNAc(b1-3)Gal(a1-4)Gal(b1-4)Glc
# How it was run: as §1
# [13] = molecular target: Fuc(a1-2)[GalNAc(a1-3)]Gal(b1-3)GlcNAc
# How it was run: as §1
# [14] = molecular target: Fuc(a1-2)[GalNAc(a1-3)]Gal(b1-3)GlcNAc(b1-2)Man(a1-3)[Fuc(a1-2)[GalNAc(a1-3)]Gal(b1-3)GlcNAc(b1-2)Man(a1-6)]Man(b1-4)GlcNAc(b1-4)GlcNAc
# How it was run: as §1
# [15] = molecular target: Fuc(a1-2)[GalNAc(a1-3)]Gal(b1-3)GlcNAc(b1-2)Man(a1-3)[Fuc(a1-2)[GalNAc(a1-3)]Gal(b1-3)GlcNAc(b1-2)Man(a1-6)]Man(b1-4)GlcNAc(b1-4)[Fuc(a1-6)]GlcNAc
# How it was run: as §1
# [16] = molecular target: Fuc(a1-2)[GalNAc(a1-3)]Gal(b1-3)GlcNAc(b1-3)GalNAc
# How it was run: as §1
# [17] = molecular target: Fuc(a1-2)[GalNAc(a1-3)]Gal(b1-3)GlcNAc(b1-6)GalNAc
# How it was run: as §1
# [18] = molecular target: Fuc(a1-2)[GalNAc(a1-3)]Gal(b1-4)Glc
# How it was run: as §1
# [19] = molecular target: Fuc(a1-2)[GalNAc(a1-3)]Gal(b1-4)GlcNAc
# How it was run: as §1
# [20] = molecular target: Fuc(a1-2)[GalNAc(a1-3)]Gal(b1-4)GlcNAc(b1-2)Man
# How it was run: as §1
# [21] = molecular target: Fuc(a1-2)[GalNAc(a1-3)]Gal(b1-4)GlcNAc(b1-2)Man(a1-3)[Fuc(a1-2)[GalNAc(a1-3)]Gal(b1-4)GlcNAc(b1-2)Man(a1-6)]Man(b1-4)GlcNAc(b1-4)GlcNAc
# How it was run: as §1
# [22] = molecular target: Fuc(a1-2)[GalNAc(a1-3)]Gal(b1-4)GlcNAc(b1-2)Man(a1-3)[Fuc(a1-2)[GalNAc(a1-3)]Gal(b1-4)GlcNAc(b1-2)Man(a1-6)]Man(b1-4)GlcNAc(b1-4)[Fuc(a1-6)]GlcNAc
# How it was run: as §1
binder,measurement,setting,value
"ECA (Erythrina cristagalli), P83410 (protein) VETISFSFSEFEPGNDNLTLQGAALITQSGVLQLTKINQNGMPAWDSTGRTLYTKPVHMWDSTTGTVASFETRFSFSIEQPYTRPLPADGLVFFMGPTKSKPAQGYGYLGVFNNSKQDNSYQTLAVEFDTFSNPWDPPQVPHIGIDVNSIRSIKTQPFQLDNGQVANVVIKYDAPSKILHVVLVYPSSGAIYTIAEIVDVKQVLPDWVDVGLSGATGAQRDAAETHDVYSWSFQASLPE",glycan array binding signal (z-score),[1],-0.485
same,glycan array binding signal (z-score),[2],-0.141
same,glycan array binding signal (z-score),[3],-0.154
same,glycan array binding signal (z-score),[4],-0.461
same,glycan array binding signal (z-score),[5],-0.455
same,glycan array binding signal (z-score),[6],-0.408
same,glycan array binding signal (z-score),[7],-0.014
same,glycan array binding signal (z-score),[8],-0.399
same,glycan array binding signal (z-score),[9],-0.203
same,glycan array binding signal (z-score),[10],-0.429
same,glycan array binding signal (z-score),[11],-0.081
same,glycan array binding signal (z-score),[12],-0.337
same,glycan array binding signal (z-score),[13],-0.351
same,glycan array binding signal (z-score),[14],-0.416
same,glycan array binding signal (z-score),[15],-0.087
same,glycan array binding signal (z-score),[16],-0.329
same,glycan array binding signal (z-score),[17],-0.412
same,glycan array binding signal (z-score),[18],-0.342
same,glycan array binding signal (z-score),[19],-0.234
same,glycan array binding signal (z-score),[20],-0.085
same,glycan array binding signal (z-score),[21],-0.21
same,glycan array binding signal (z-score),[22],0.097
